Test results: the supplement of paper PMC4967469
The IC50 comes from the fitted curve, where viability falls to half of the control; where the fit passes the top or lowest dose, that dose stands as a limit. For AUC the same curve is integrated over the 256-fold range of doses and scaled to a fraction: 1 means no effect, lower means more sensitive. For part of these data: Where the top dose is marked as inferred, it was derived from the fitted curves, not read from the paper.

What was measured:
Experiment in all cases: Viability of human cancer cell lines after 72 h of drug (GDSC screen)
[1] = compound: CCc1cc(-c2n[nH]c(C)c2-c2ccc3c(c2)OCCO3)c(O)cc1O [CCT018159]; conditions: top dose 10 µM; top dose inferred
Description: (§1)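 Human cancer cell lines in 384-well plates, medium with 10% serum, drug for 72 h over a 256-fold dose range (nine 2-fold or five 4-fold steps up to the top dose). Adherent lines were fixed and stained with the nucleic acid dye Syto60, suspension lines read with resazurin; signal relative to control wells, capped at 0 and 100%. One two-parameter sigmoid per drug and line, fitted in a mixed model over all curves with the slope shared within a line.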

[2] = compound: CN(C)Cc1cccc(N=C(c2ccccc2)c2c(O)[nH]c3cc(C(=O)N(C)C)ccc23)c1 [BIX02189]; conditions: top dose 20 µM; top dose inferred
Description: as §1

[3] = compound: COC(=O)CNC(=O)C(=O)OC [Dimethyloxalylglycine]; conditions: top dose 4000 µM; top dose inferred
Description: as §1

[4] = compound: COc1cccc2c1C(=O)c1c(O)c3c(c(O)c1C2=O)C[C@@](O)(C(=O)CO)C[C@@H]3O[C@H]1C[C@H](N)[C@H](O)[C@H](C)O1 [Doxorubicin]; conditions: top dose 1.024 µM
Description: as §1

[5] = compound: COc1cccc2cc(-c3nc([C@H]4CC[C@H](C(=O)O)CC4)n4ncnc(N)c34)[nH]c12 [OSI-027]; conditions: top dose 20 µM
Description: as §1

[6] = compound: CS(=O)(=O)c1ccc(C(=O)Nc2ccc(Cl)c(-c3ccccn3)c2)c(Cl)c1 [Vismodegib]; conditions: top dose 10 µM; top dose inferred
Description: as §1

[7] = compound: Cc1cnc(Nc2ccc(F)cc2Cl)nc1-c1c[nH]c(C(=O)N[C@H](CO)c2cccc(Cl)c2)c1 [VX-11e]; conditions: top dose 5.12 µM; top dose inferred
Description: as §1

[8] = compound: Cc1cnc(Nc2ccc(OCCN3CCCC3)cc2)nc1Nc1cccc(S(=O)(=O)NC(C)(C)C)c1 [TG101348]; conditions: top dose 10.24 µM
Description: as §1

[9] = compound: O=C(c1ccc(C(=O)N2CCC(N3CCCC3)CC2)c(Nc2ccccc2)c1)N1CCC(N2CCCC2)CC1 [UNC1215]; conditions: top dose 1 µM; top dose inferred
Description: as §1

Cell Line | AUC [1] | IC50 [1] [µM] | AUC [2] | IC50 [2] [µM] | AUC [3] | IC50 [3] [µM] | AUC [4] | IC50 [4] [µM] | AUC [5] | IC50 [5] [µM] | AUC [6] | IC50 [6] [µM] | AUC [7] | IC50 [7] [µM] | AUC [8] | IC50 [8] [µM] | AUC [9] | IC50 [9] [µM]
UMC-11 (lung carcinoid, adherent) | 0.958 | > 10 | 0.969 | > 20 | 0.439 | 174 | 0.794 | 0.416 | 0.347 | 0.495 | 0.991 | > 10 | 0.977 | > 5.12 | 0.825 | 5.27 | 0.99 | > 1
Mewo (melanoma, adherent) | 0.883 | > 10 | 0.984 | > 20 | 0.486 | 228 | 0.939 | > 1.02 | 0.849 | 19.6 | 0.954 | > 10 | 0.984 | > 5.12 | 0.972 | > 10.2 | 0.983 | > 1
KMS-12-BM (myeloma, suspension) | 0.954 | > 10 | 0.92 | > 20 | 0.414 | 152 | 0.771 | 0.326 | 0.158 | 0.147 | 0.951 | > 10 | 0.971 | > 5.12 | 0.405 | 0.368 |  | 
KYSE-270 (oesophagus, adherent) | 0.942 | > 10 | 0.952 | > 20 | 0.454 | 191 | 0.17 | 0.0079 | 0.707 | 4.32 |  |  | 0.945 | > 5.12 | 0.883 | 8.2 | 0.99 | > 1
NCI-H1666 (lung adenocarcinoma, semi-adherent) | 0.912 | > 10 | 0.986 | > 20 | 0.374 | 108 | 0.858 | 0.976 | 0.802 | 11 | 0.976 | > 10 | 0.974 | > 5.12 | 0.867 | > 10.2 | 0.985 | > 1
NCI-H2029 (small cell lung carcinoma, adherent) | 0.992 | > 10 | 0.986 | > 20 | 0.685 | 774 | 0.883 | 0.909 | 0.903 | > 20 | 0.992 | > 10 | 0.99 | > 5.12 | 0.964 | > 10.2 | 0.992 | > 1
NCI-H1734 (lung adenocarcinoma, adherent) | 0.976 | > 10 | 0.956 | > 20 | 0.857 | 3770 | 0.475 | 0.0543 | 0.782 | 9.23 | 0.978 | > 10 | 0.983 | > 5.12 | 0.916 | > 10.2 |  | 
KOSC-2 (head and neck, adherent) | 0.869 | 9.94 | 0.982 | > 20 | 0.914 | > 4000 | 0.685 | 0.217 | 0.844 | 15.3 |  |  | 0.975 | > 5.12 | 0.751 | 3.51 | 0.971 | > 1
NCI-H1581 (large cell lung carcinoma, semi-adherent) | 0.989 | > 10 | 0.968 | > 20 | 0.735 | 1100 | 0.893 | > 1.02 | 0.298 | 0.357 | 0.99 | > 10 | 0.972 | > 5.12 | 0.85 | 6.82 | 0.978 | > 1
KALS-1 (glioma, adherent) | 0.833 | > 10 | 0.934 | > 20 | 0.64 | 705 | 0.399 | 0.0305 | 0.504 | 1.29 |  |  | 0.893 | > 5.12 | 0.895 | > 10.2 | 0.975 | > 1
KYSE-70 (oesophagus, adherent) | 0.946 | > 10 | 0.968 | > 20 | 0.624 | 568 | 0.678 | 0.212 | 0.868 | > 20 | 0.987 | > 10 | 0.982 | > 5.12 | 0.92 | > 10.2 | 0.984 | > 1
NCI-H1299 (large cell lung carcinoma, adherent) | 0.855 | > 10 | 0.919 | > 20 | 0.76 | 1720 | 0.432 | 0.0401 | 0.829 | 16.5 |  |  | 0.91 | > 5.12 | 0.752 | 4.09 | 0.98 | > 1
PCI-38 (head and neck, adherent) | 0.845 | 7.31 | 0.91 | > 20 | 0.941 | > 4000 | 0.827 | 0.633 | 0.881 | > 20 |  |  | 0.937 | > 5.12 | 0.939 | > 10.2 | 0.985 | > 1
NCI-H1573 (lung adenocarcinoma, adherent) | 0.932 | > 10 | 0.987 | > 20 | 0.891 | > 4000 | 0.99 | > 1.02 | 0.892 | > 20 |  |  | 0.982 | > 5.12 | 0.94 | > 10.2 | 0.983 | > 1
HSC-3 (head and neck, adherent) | 0.893 | 8.91 | 0.989 | > 20 | 0.657 | 633 | 0.49 | 0.0604 | 0.865 | 13.6 |  |  | 0.988 | > 5.12 | 0.962 | > 10.2 | 0.987 | > 1
SW1990 (pancreas, adherent) | 0.919 | > 10 | 0.985 | > 20 | 0.58 | 432 | 0.687 | 0.236 | 0.854 | > 20 | 0.985 | > 10 | 0.974 | > 5.12 | 0.984 | > 10.2 | 0.983 | > 1

Cell Line | AUC [1] | IC50 [1] [µM] | AUC [2] | IC50 [2] [µM] | AUC [3] | IC50 [3] [µM] | AUC [4] | IC50 [4] [µM] | AUC [5] | IC50 [5] [µM] | AUC [6] | IC50 [6] [µM] | AUC [7] | IC50 [7] [µM] | AUC [8] | IC50 [8] [µM] | AUC [9] | IC50 [9] [µM]
RT-112 (bladder, adherent) | 0.844 | 7.99 | 0.913 | > 20 | 0.492 | 238 | 0.342 | 0.0225 | 0.458 | 0.95 |  |  | 0.956 | > 5.12 | 0.804 | 5.58 | 0.983 | > 1
J82 (bladder, adherent) | 0.925 | > 10 | 0.97 | > 20 | 0.325 | 81.3 | 0.356 | 0.0257 | 0.662 | 3.52 |  |  | 0.988 | > 5.12 | 0.977 | > 10.2 | 0.987 | > 1
ML-1 (thyroid, adherent) | 0.95 | > 10 | 0.941 | > 20 | 0.26 | 45 | 0.465 | 0.0506 | 0.765 | 8.57 |  |  | 0.97 | > 5.12 | 0.794 | 5.62 | 0.982 | > 1
NCI-H1963 (small cell lung carcinoma, suspension) | 0.853 | 6.3 | 0.99 | > 20 | 0.518 | 278 | 0.803 | 0.433 |  |  | 0.991 | > 10 | 0.982 | > 5.12 |  |  |  | 
HO-1-N-1 (head and neck, adherent) | 0.897 | > 10 | 0.98 | > 20 | 0.715 | 953 | 0.668 | 0.179 | 0.888 | 19.4 |  |  | 0.977 | > 5.12 | 0.965 | > 10.2 | 0.987 | > 1
PL18 (pancreas, adherent) | 0.901 | > 10 | 0.973 | > 20 | 0.733 | 1150 | 0.43 | 0.0414 | 0.814 | 10.8 |  |  | 0.947 | > 5.12 | 0.901 | > 10.2 | 0.982 | > 1
SW1463 (large intestine, adherent) | 0.978 | > 10 | 0.974 | > 20 | 0.678 | 1130 | 0.856 | > 1.02 | 0.567 | 2.16 |  |  | 0.911 | > 5.12 | 0.978 | > 10.2 | 0.975 | > 1
SW837 (large intestine, adherent) | 0.957 | > 10 | 0.965 | > 20 | 0.659 | 802 | 0.572 | 0.107 | 0.561 | 1.93 |  |  | 0.797 | 3.36 | 0.906 | > 10.2 | 0.979 | > 1
H2818 (mesothelioma, adherent) | 0.968 | > 10 | 0.985 | > 20 | 0.676 | 785 | 0.859 | 0.89 | 0.962 | > 20 |  |  | 0.989 | > 5.12 | 0.899 | > 10.2 | 0.988 | > 1
RMG-I (ovary, adherent) |  |  | 0.89 | > 20 | 0.653 | 716 | 0.76 | 0.419 | 0.275 | 0.254 | 0.983 | > 10 | 0.889 | > 5.12 | 0.826 | 7.63 | 0.981 | > 1
SW1088 (glioma, adherent) | 0.896 | > 10 | 0.933 | > 20 | 0.739 | 1510 | 0.831 | 0.938 | 0.839 | > 20 |  |  | 0.979 | > 5.12 | 0.831 | 9.3 | 0.975 | > 1
TGBC24TKB (biliary tract, adherent) | 0.928 | > 10 | 0.978 | > 20 | 0.685 | 789 | 0.882 | 0.963 | 0.82 | 10.5 |  |  | 0.932 | > 5.12 | 0.935 | > 10.2 | 0.984 | > 1
HMV-II (melanoma, adherent) | 0.928 | > 10 | 0.944 | > 20 |  |  | 0.297 | 0.0149 | 0.8 | 12.2 | 0.981 | > 10 | 0.64 | 0.854 | 0.915 | > 10.2 | 0.98 | > 1
A2058 (melanoma, adherent) | 0.826 | 5.18 | 0.99 | > 20 | 0.42 | 155 | 0.31 | 0.02 | 0.638 | 2.88 | 0.982 | > 10 | 0.983 | > 5.12 | 0.9 | > 10.2 |  | 
HTC-C3 (thyroid, adherent) | 0.937 | > 10 | 0.854 | 19 | 0.429 | 156 | 0.763 | 0.414 | 0.161 | 0.0966 |  |  | 0.783 | 2.44 | 0.789 | 5.14 | 0.982 | > 1
Daoy (medulloblastoma, adherent) | 0.832 | 5.57 | 0.963 | > 20 | 0.506 | 260 | 0.231 | 0.0116 | 0.216 | 0.203 |  |  | 0.97 | > 5.12 | 0.943 | > 10.2 | 0.986 | > 1
